Experimental data from the supplement of paper PMC10986608.
This is one part of the list. Repeats are few or missing, and single values can be far off.

What follows are compounds tested on Candida albicans DPL-15 (assay: growth (OD600) after compound treatment (apparently relative to screen median) (relative growth (fraction; screen median 1.02)); DPL-15 is a caspofungin-resistant clinical isolate; higher = more fungal growth (less antifungal activity)). Conditions: 25 µM; RPMI 1640; 48 h; 30 °C.
Compound `CC(=O)C1=C2C=CCCN2C(=O)NC1c1ccc2c(c1)OCO2` (centres undefined) has a growth of 0.885. `CC(C)(C)NS(=O)(=O)O[C@@H]1C[C@@H]2CC[C@@]1(C)C2(C)C` was tested, and the growth was 1.1. With `COc1cc(OC)c2c(c1)OC(Cc1cccc(-c3ccccc3)c1)(c1ccc(Br)cc1)C2=O` (centres undefined) the growth was 0.968. Compound `Cc1nn(C)c2c1C(c1ccc3c(c1)OCO3)N(c1ccccc1)C2=O` (centres undefined) has a growth of 1.07. `COC(=O)C1=C(C)N(Cc2ccccc2)C(NCc2ccc(OC)cc2)=NC1c1cccc(F)c1` (centres undefined) was tested, and the growth was 1.07. Compound `C=CCCCCc1cccc(-c2cccs2)n1` has a growth of 1.08. Work on `COC(=O)[C@H]1C(=O)[C@@]2(NCCN(C)C)c3c(OC)cc(OC)cc3O[C@@]2(c2ccc(OC)cc2)[C@@H]1c1ccccc1` yielded a growth of 1.82. With `CC(=O)C1=C(C)N(Cc2cccc(Cl)c2)C(=S)NC1c1cccc(Cl)c1` (centres undefined) the growth was 0.929. For `COc1ccc2c(c1)[C@@]1(CC(C)=C[C@H](COc3cccc(F)c3)O1)C(=O)N2`, the growth was 0.886. `O=S(=O)(c1ccccc1)N1CCCc2nc(-c3ccccc3)ccc21` was tested, and the growth was 0.965. For `C/C=C/C1CC(=O)c2c(O)c(C)c(O)c(C)c2O1` (centres undefined), the growth was 0.852. In the case of `COC(=O)C1=C(C)N(C)C(NCc2ccccc2C(F)(F)F)=NC1c1ccc(Cl)cc1` (centres undefined), the growth is reported as 0.997. For `COC(=O)[C@@]12Oc3ccc(-c4cnn(C5CCNCC5)c4)c(O)c3C(=O)C1=C(N)C[C@H](C)[C@H]2O`, the growth was 1.14. Compound `Cn1nccc1Nc1cc(O)cc(O)c1C(=O)N1CC[C@@H](F)C1` has a growth of 1.04. In the case of `CO[C@@H]1[C@H](O)CC[C@]2(O)CN(c3cccnc3)[C@](C)([C@H](O)CC=C(C)C)[C@@H]12`, the growth is reported as 0.888. Work on `CCCN1C(NCc2ccc(C(F)(F)F)cc2)=NC(c2ccc(F)cc2)C(C(=O)OC)=C1C` (centres undefined) yielded a growth of 1.02. With `CC(C)Cc1nn(C)c2c1C(c1ccccc1)N(Cc1ccccc1)C2=O` (centres undefined) the growth was 0.928. For `COc1ccc(N2C(=O)C3=C(C(C(C)C)=NCC(C)(C)N3)C2c2ccc(F)cc2)cc1` (centres undefined), the growth was 1.09. Compound `COC(=O)C1=C(C)N(Cc2cccc(C(F)(F)F)c2)C(=S)NC1c1cccc(Br)c1` (centres undefined) has a growth of 0.894. `CC(=O)C1=C2C=CCCN2C(=O)NC1c1cc(F)cc(Cl)c1` (centres undefined) showed a growth of 0.912. Compound `COC(=O)C1=C(C(=O)OC)[C@@H](c2ccc(F)cc2)O[C@H]1c1ccc(F)cc1` has a growth of 1.13. In the case of `CC#CCN1C(=O)NC(c2ccccc2)C(C(=O)OC)=C1CC` (centres undefined), the growth is reported as 1.12. With `COC(=O)C1=C(C)N(Cc2cccc(C(F)(F)F)c2)C(NCC(C)C)=NC1c1ccc(Cl)cc1` (centres undefined) the growth was 0.93. `C=CCN1C(=O)C2=C(C(C)=NCCN2)C1c1ccc2c(c1)OCO2` (centres undefined) was tested, and the growth was 1.1. Compound `C#CCN(C)C(=O)c1nnc(C(C)=O)c2c3ccccc3n(S(=O)(=O)c3ccccc3)c12` has a growth of 0.969. Compound `COc1ccccc1N1C(=O)c2[nH]nc(CC(C)C)c2C1c1cccc(Cl)c1` (centres undefined) has a growth of 0.962. In the case of `Cc1nn(-c2ccccc2)c2c1C(c1cccc(C(F)(F)F)c1)NC2=O` (centres undefined), the growth is reported as 1.04. In the case of `O=C([O-])COc1ccccc1[N+](=O)[O-]`, the growth is reported as 1.21. With `COc1cc(CC=C(C)C)c2c(=O)cc(-c3ccccc3)oc2c1O` the growth was 1.09. For `O=C1C=C(Br)C2(OCCCO2)[C@@H]2O[C@H]12`, the growth was 0.988. `COc1ccc(N2C(=O)c3c(c(CC(C)C)nn3C)C2c2ccc3c(c2)OCO3)cc1` (centres undefined) was tested, and the growth was 0.917. `O=c1c2ccccc2oc2cc(CO)c(I)c(O)c12` showed a growth of 0.77. With `CC(CCOS(=O)(=O)NC(C)(C)C)CC(C)(C)C` (centres undefined) the growth was 0.943. `C=CC[C@]12C[C@@]3(O[C@H](C(C)(C)C)N=C3C[C@H](c3ccc(OC)cc3)[C@H]1C)N(Cc1ccncc1)C2=O` showed a growth of 0.948. `COc1ccc([C@@]23Oc4cc(OC)cc(OC)c4[C@]2(O)[C@H](O)[C@H](C(=O)N(C)OC)[C@H]3c2ccco2)cc1` gave a growth of 1.09. For `Cn1nc(C2CCCCC2)cc1N`, the growth was 0.968. `Cc1cc(O)c2c3c4c(cc(O)c13)O[C@@]1(C)OCC[C@H]1[C@H]4OC2=O` gave a growth of 1.11. `Cc1cc(O)c2c3c4c(cc(O)c13)O[C@@]1(c3ccccc3)OCC[C@H]1[C@H]4OC2=O` was tested, and the growth was 0.955. For `CCN(CC)CCCNC1=NC(c2ccc(Cl)cc2)C(C(=O)OC)=C(C)N1Cc1ccc(C(F)(F)F)cc1` (centres undefined), the growth was 1.01. For `CC(C)Cc1n[nH]c2c1C(c1cccc(C(F)(F)F)c1)N(c1ccccc1)C2=O` (centres undefined), the growth was 0.896. `COC(=O)C1=C(C)N(Cc2ccc(F)cc2)C(=S)NC1c1ccc(F)cc1` (centres undefined) showed a growth of 0.978. In the case of `CC(C)(C)NS(=O)(=O)OCCCCc1ccccc1`, the growth is reported as 1.06. Compound `COc1ccc(N2C(=O)c3c(c(-c4ccccc4)nn3C)C2c2ccc(C)cc2)cc1` (centres undefined) has a growth of 0.917. `COC(=O)Cc1nnn2c1[C@@H](C)[C@@H](c1ccccc1Br)OC[C@@H]2c1ccccc1` gave a growth of 1.05. For `COC(=O)C1=C(C)N(CC(C)C)C(=S)NC1c1ccccc1` (centres undefined), the growth was 0.985. In the case of `COC(=O)Cc1nnn2c1[C@H](C)[C@@H](OC)c1cc(Br)ccc1-2`, the growth is reported as 1.05. `C=C(C)CC1=C(Br)CCC1=O` showed a growth of 1.13. Compound `O=C1C(Nc2ccccc2)=CC(c2ccc(C(F)(F)F)cc2)N1c1ccc(F)cc1` (centres undefined) has a growth of 1.02. For `CC(=O)OC[C@H]1O[C@H](c2ccc(C(C)=O)cc2)C=C[C@H]1OC(C)=O`, the growth was 1.06. Work on `COC(=O)C1=C(C)NC(=O)NC1c1ccccc1` (centres undefined) yielded a growth of 0.869. `C#CCOC[C@@H](NC(=O)[C@@H]1C[C@@H](O)CN1C(=O)OCC1c2ccccc2-c2ccccc21)c1ccccc1` gave a growth of 1.09. With `COc1ccc(S(=O)(=O)N2CCCc3nc(C)c(C)cc32)cc1` the growth was 0.966. Compound `CC1Cc2nc(-c3ccccc3)c(-c3ccccc3)cc2CN1Cc1ccccc1` (centres undefined) has a growth of 1.53. In the case of `C(#Cc1c(-c2ccccc2)nnn1Cc1ccccc1)c1ccccc1`, the growth is reported as 1.09. Compound `CC(=O)N[C@H]1CCN(C(=O)c2c(O)cc(O)cc2Nc2ccnn2C)C1` has a growth of 1.09. Work on `CC(=O)[C@H]1[C@H](CCc2ccccc2)NC(=O)N(Cc2ccccc2)[C@@H]1C` yielded a growth of 0.94. `CC1=NCCNC2=C1C(c1ccc(Br)cc1)NC2=O` (centres undefined) showed a growth of 1.02. With `Cc1ccc(S(=O)(=O)N/N=C/c2cccc(C(=O)NCC(O)C(=O)O)c2)cc1` (centres undefined) the growth was 1.24. For `CC[C@@H](O)COc1cc2c(cc1C1(c3cc4c(cc3OC[C@H](O)CC)OCO4)C(=O)Nc3ccc(F)cc31)OCO2`, the growth was 0.982. Compound `CN1C(=O)[C@@]2(O[C@H]3[C@@H]4C=C[C@@H]([C@H]5C(=O)N(Cc6ccccc6)C(=O)[C@@H]45)N3C3=C2C(=O)CC3)c2ccccc21` has a growth of 1.13. In the case of `COc1cc2c(cc1OC)CS[C@@H]1C(=O)N(C)[C@H](SC2)C(=O)N1C`, the growth is reported as 1.06. `COc1cc(-c2cc(OC)c(C)c(C=O)c2O)c(O)c(C=O)c1C` gave a growth of 1.07. For `Cc1ccc(C2C3=C(NCCN=C3CC(C)C)C(=O)N2c2ccccc2)cc1` (centres undefined), the growth was 0.916. With `CC1=NCCNC2=C1C(c1ccccc1)NC2=O` (centres undefined) the growth was 1.19. For `COC(=O)c1cc(OC)c(Cl)c(OC)c1`, the growth was 1.06. For `OCC1CCCN(CCc2ccccc2)C1` (centres undefined), the growth was 1.22. With `O=C(O)c1cccc2c(=O)c3cccc(O)c3[nH]c12` the growth was 1.06. Compound `COc1cc([C@H]2c3c(OC)c(O)c4oc5c(C)cccc5c(=O)c4c3[C@@H]3C=C(C)CC(C)(C)[C@H]23)c2c(=O)c3cccc(C)c3oc2c1O` has a growth of 1.08. With `CCOC(=O)c1nc(C(=O)OCC)c2[nH]c(SC)nc2c1C(=O)OCC` the growth was 0.99. For `COc1ccc(-c2ccc3c(n2)CCCN3S(=O)(=O)c2cccs2)cc1`, the growth was 0.9. In the case of `CC1=C[C@H](COc2ccc(C(C)(C)C)cc2)O[C@]2(C1)C(=O)Nc1cc(F)ccc12`, the growth is reported as 0.971. `COC(=O)C1=C(C)N(CCCOC(C)C)C(=S)NC1c1ccccc1` (centres undefined) was tested, and the growth was 1.09. Work on `COC(=O)/C(Cc1cc(Br)c(OC)c(Br)c1)=N\O` yielded a growth of 1.08. In the case of `CC(=O)OC[C@H]1O[C@H](c2ccc(C(C)(C)C)cc2)C=C[C@@H]1OC(C)=O`, the growth is reported as 0.864. `COC(=O)c1cc2nc(/N=C/N(C)C)nc(O)c2nc1C(=O)OC` gave a growth of 0.982. Compound `O=C1Nc2cccc(Br)c2[C@@]12O[C@H](COc1ccccc1)CC1=CCC[C@H]12` has a growth of 0.997. `CC(=O)C1=C(C)N(Cc2ccc(Cl)cc2)C(=S)NC1c1ccccc1` (centres undefined) showed a growth of 0.955. In the case of `Cc1ccc(C2NC(=O)c3nn(-c4ccccc4)c(CC(C)C)c32)cc1` (centres undefined), the growth is reported as 1.04. With `COc1c(C)c(C)c(C(=O)O)c(OC/C=C/c2ccccc2)c1C` the growth was 0.928. For `CC(C)(C)c1ccc(C#C[C@@H]2C=C[C@H]3OC(=O)CC/C=C/CCC(=O)OC[C@H]3O2)cc1`, the growth was 1.1. `COC(=O)[C@]1([C@@H]2CCC(=O)O2)CC(=O)c2c(O)c(Br)c(C)c(-c3c(C)c(Br)c(O)c4c3O[C@@](C(=O)OC)([C@@H]3CCC(=O)O3)CC4=O)c2O1` showed a growth of 1.06. `OC(COc1ccccc1)Cn1nnc(-c2ccccc2)c1C#Cc1ccccc1` (centres undefined) showed a growth of 1.17. In the case of `COc1ccccc1Cn1nc2c(c1CC(C)C)C(c1ccc(F)cc1)NC2=O` (centres undefined), the growth is reported as 0.824. For `O=C1CC2(CCCCC2)CNC(=O)c2cccc(c2)-c2[nH]ncc2CCCCCCN1`, the growth was 0.982.
